{
  "source": "paper PMC12136788",
  "binders": {"B1": {"name": "18382297_18383710_1157_CDS_ENSG00000243156_ENST00000441493|human|control|control (ssRNA)", "RNA": "GGGAGUUCUACAGUCCGACGAUCGUUCUCCAAGUCAAUACCUGUGGCUUCCCUCAGUUCCUGGAAAAAUUUUUGGUUGAAUAUAAAAGCCACACCACUGAUCUCUUCCACUUUAGCUUCUGCUGUUGUAUUUCGGUUGAUAAACAACAGAGGAUUGAGCAUCA"}, "B2": {"name": "chr15:98781125:98781126:-_ENSMUSG00000072235_ENSMUST00000097014|mus_hu|FALSE|FALSE (ssRNA)", "RNA": "GGGAGUUCUACAGUCCGACGAUCAACAUUCAGGGCUCCAUCAAAUCUCAGGGAAGCAGUGAUGGAGGACACAAUUUGACCUAUUAACCUAUUCAGGUUAGUAUAGGUUGGACGCUCAAUAUCGAGGUUUCUACGACAGAUGUCCAACAGAGGAUUGAGCAUCA"}, "B3": {"name": "66266372_66266492_4502_CDS_ENSMUSG00000038664_ENSMUST00000042824|mouse|control|control (ssRNA)", "RNA": "GGGAGUUCUACAGUCCGACGAUCAGAGGCACUCACAGAAGGCUGCUGUAACUGCCCUUCUUCCCUUCGCUUCUGAAGCUCAUCAAUCACAGGACUUACUCCUAAUAUUAGGAGCGCACAGCGGUGGAUCACAGAGUUGCAGGCCAACAGAGGAUUGAGCAUCA"}, "B4": {"name": "28027135_28027255_379_3pUTR_ENSMUSG00000063632_ENSMUST00000079063|mouse|control|control (ssRNA)", "RNA": "GGGAGUUCUACAGUCCGACGAUCCGACGCCGUCUUGCACCAGUCCGGGUCGCUCUCGUCCAGGGCCACCGGGCUGCACGCCAUGAACUCGCCCUCCUCGGUGUCCAGCGCGUCCCGGGGCAGGUUGCUCUCGGCUUCCGAGCUCAACAGAGGAUUGAGCAUCA"}, "B5": {"name": "3367318_3367438_2247_3pUTR_ENSMUSG00000020668_ENSMUST00000020999|mouse|control|control (ssRNA)", "RNA": "GGGAGUUCUACAGUCCGACGAUCCUCACUCACAAGGCUGCGGUCAUCCUGGAUGGCAGCCUUCUCCUCCUCCAGCCGUUCCUUCUGGUCCUGCAGGUAAUUCUCCAUGUUCUUCUCCAAAGCUGCCUCCAAGAUGGGCUGGGGCAACAGAGGAUUGAGCAUCA"}, "B6": {"name": "chr15:3987131:3987132:+_ENSMUSG00000022186_ENSMUST00000110690|mus_mus|motif|central (ssRNA)", "RNA": "GGGAGUUCUACAGUCCGACGAUCCCCUGCAUUGUUGCUGACUGCAGUUAGAUCUUUUACUCCAGUCUUCAGUAAAGCUCCGGUAAGAUUCUCUGGAAUACCACACAGCCCAAAACCACCAACCAGCAAGGUUGCACCAUUAGGCAACAGAGGAUUGAGCAUCA"}},
  "note": "The list shows a part of the results.",
  "data": [
    {"target": "T1, UNK ZnF1-3 (human, UniProt Q9C0B0 31-174)", "T1 sequence": "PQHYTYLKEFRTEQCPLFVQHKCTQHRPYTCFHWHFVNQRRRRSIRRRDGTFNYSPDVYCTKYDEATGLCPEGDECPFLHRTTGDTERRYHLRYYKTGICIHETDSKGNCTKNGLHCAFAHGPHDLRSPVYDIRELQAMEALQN", "assay": "nsRBNS (natural sequence RNA bind-n-seq); RBNS binding buffer (assumed for nsRBNS): 25 mM Tris pH 7.5, 150 mM KCl, 3 mM MgCl2, 0.01% Triton X-100, 500 ug/ml BSA, 20 U/ml SUPERase-In, 4 C; UNK is unkempt and MSI1 is Musashi-1; names of the RNAs are library labels; protein concentration not given here; high values mean tight binding", "units": {"binding signal": "enrichment R"}, "values": [
      {"binder": "B1", "binding signal": 0.904},
      {"binder": "B2", "binding signal": 0.742},
      {"binder": "B3", "binding signal": 1.4},
      {"binder": "B4", "binding signal": 0.493},
      {"binder": "B5", "binding signal": 0.61},
      {"binder": "B6", "binding signal": 1.01}
    ]}
  ]
}
